Measurements from PubChem BioAssay AID894 (National Center for Advancing Translational Sciences (NCATS), 2007).
Hit rate of the full screen: of about 150,000 compounds, about 6,500 (4.3%) were called active. The inconclusive results got no clear call from the source; some entries with a clear call stand among them for comparison. Calls come from the whole dose curve; as a rule, active = well fitted inhibition curve with a large enough effect (not every such curve was filed as active); inconclusive = small, poorly fitted or top-dose-only effect, or another doubt; inactive = no such curve, though single readings can be large or run the other way. Where the call is inconclusive, the potency comes from a doubtful curve fit.

Each molecule was assayed against 15-hydroxyprostaglandin dehydrogenase [NAD(+)] (Homo sapiens) (UniProt P15428) (assay: qHTS Assay for Inhibitors of HPGD (15-Hydroxyprostaglandin Dehydrogenase)). Settings: purified HPGD, NADH fluorescence kinetic, PGE2 substrate; activity change, negative = inhibition: active compounds read low.
How it was run: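 NADH formation kinetics: reaction with 30 uM PGE2 and 1 mM NAD+ (final), 20 nM enzyme, Tris-HCl pH 8 with Tween 20, after 15 min compound preincubation at room temperature. Fluorescence change, last versus first of five reads.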
% is set by controls: 0 for no effect and ±100 for the full control effect; potency is the fitted concentration of half-maximal effect; tags give direction and shape of the fitted curve.

Chain of UniProt P15428 (P15428 whole entry, looked up): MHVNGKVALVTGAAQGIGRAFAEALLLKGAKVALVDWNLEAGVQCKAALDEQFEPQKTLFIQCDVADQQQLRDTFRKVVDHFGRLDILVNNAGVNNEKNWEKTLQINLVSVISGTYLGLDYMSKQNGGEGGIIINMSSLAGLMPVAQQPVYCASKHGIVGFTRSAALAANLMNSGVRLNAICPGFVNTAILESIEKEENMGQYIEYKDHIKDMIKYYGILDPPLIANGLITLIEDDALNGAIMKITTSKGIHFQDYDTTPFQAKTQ

Potency, inconclusive:
O=C(COc1ccc(Cl)cc1Cl)Nc1c(-c2cccs2)nc2ccccn12 14.1 µM [inhibitor, partial curve]
Cc1onc(-c2ccccc2)c1C(=O)Nc1ccc2c(c1)OCO2 5.62 µM [inhibitor, single point]
COc1ccc(-c2oc3ccccc3c(=O)c2OC(=O)c2ccc(C)cc2)cc1 25.1 µM [inhibitor, partial curve]
Cc1cc(=O)oc2cc(OC(C)C)ccc12 28.2 µM [inhibitor, partial curve]
CC1(C)Oc2ccc3ccc(=O)oc3c2C(N2CCCCC2)C1O (stereo not drawn) 31.6 µM [inhibitor, partial curve]
Nc1ccc2c(c1)C/C(=C/c1ccco1)C2=O 22.4 µM [inhibitor, partial curve]
CSc1nc(-c2ccccc2)nn1S(=O)(=O)c1ccccc1 28.2 µM [inhibitor, partial curve]
COc1ccc(-c2nc3ccncc3[nH]2)cc1OC 28.2 µM [inhibitor, partial curve]
C=CCn1c(N)c(C(=O)OC(C)CC)c2nc3ccccc3nc21 (stereo not drawn) 14.1 µM [inhibitor, partial curve]
CCSc1nc2c(sc3nc(C)cc(C)c32)c(=O)[nH]1 25.1 µM [inhibitor, partial curve]
NC(=O)c1c(NC(=O)CN2CCCC2)sc2c1CCCC2 11.2 µM [inhibitor, partial curve]
CC1CCN(C(=O)CSc2nc3c(cnn3-c3ccccc3)c(=O)[nH]2)CC1 31.6 µM [inhibitor, partial curve]
COc1cccc(-c2cc(=O)c3cc(NC(C)=O)ccc3[nH]2)c1 28.2 µM [inhibitor, partial curve]
N#C/C(=C/c1cn(-c2ccccc2)nc1-c1cccc(OCc2ccccc2)c1)C(=O)NCCCn1ccnc1 28.2 µM [inhibitor, single point]
Cc1nc(SCC(=O)c2ccccc2)n[nH]1 35.5 µM [inhibitor, single point]
Cn1c(=O)c2c(nc(N/N=C/c3ccc(OC(=O)c4ccco4)cc3)n2Cc2ccccc2Cl)n(C)c1=O 31.6 µM [inhibitor, partial curve]
Cc1ccc(NC(=O)Cn2cccc2)cc1C 11.2 µM [inhibitor, partial curve]
COc1ccc(-c2ccc(-c3noc(-c4ccccc4C)n3)c(OC)n2)cc1 28.2 µM [inhibitor, partial curve]
CCCCCCNC(=O)Cc1c(O)c2ccccc2[nH]c1=O 31.6 µM [inhibitor, partial curve]
Clc1ccc(Oc2nc3ccccc3n3cccc23)cc1 15.8 µM [inhibitor, partial curve]
O=C1c2ccccc2NC(c2c(Cl)cccc2Cl)N1Cc1ccccc1 (stereo not drawn) 31.6 µM [inhibitor, partial curve]
COc1cc(C(=O)Nc2nc(-c3ccc(F)cc3)cs2)ccc1OCC(=O)N1CCOCC1 39.8 µM [inhibitor, single point]
Cc1ccc(C(=O)CSc2ccc(-c3ccccc3)nn2)cc1 31.6 µM [inhibitor, partial curve]
COC(=O)c1cc(NC(=O)N2c3ccccc3Sc3ccccc32)cc(C(=O)OC)c1 20 µM [inhibitor, partial curve, poor fit]
NC(=O)CSc1nc2sc(-c3ccccc3)cc2c(=O)n1N 17.8 µM [inhibitor, partial curve]
CCc1cc2c(CN3CCN(C)CC3)cc(=O)oc2cc1O 28.2 µM [inhibitor, partial curve]
COc1ccc(/C=C2\CCCC3C2=NN(C(=O)c2scnc2C)C3c2ccc(OC)cc2)cc1 (stereo not drawn) 31.6 µM [inhibitor, single point]
O=C1c2cccc3cccc(c23)C(=O)N1c1ccncc1 25.1 µM [inhibitor, partial curve]
COc1ccc(CCNc2cc(C)nc3c(-c4ccc(Cl)cc4)c(C)nn23)cc1OC 31.6 µM [inhibitor, partial curve]
COc1ccc(C(=O)N=c2sc3c(C)ccc(OC)c3n2C)cc1 31.6 µM [inhibitor, partial curve]
COc1ccc(Cl)cc1Nc1nc(-c2sc(NC(=O)c3ccco3)nc2C)cs1 25.1 µM [inhibitor, partial curve]
CCCC(=O)OCCNc1cc(SCc2ccco2)c2nonc2c1[N+](=O)[O-] 11.2 µM [inhibitor, partial curve, poor fit]
COc1cc(-c2nn3c(-c4ccccn4)nnc3s2)cc(OC)c1OC 22.4 µM [inhibitor, partial curve]
COc1ccc(S(=O)(=O)N(CC(=O)O)c2ccccn2)cc1 28.2 µM [inhibitor, partial curve]
COc1ccc(OC)c(/C=N/NC(=O)CCN2CCN(C(c3ccccc3)c3ccccc3)CC2)c1 28.2 µM [inhibitor, partial curve]
O=C(Oc1cccc(Nc2ncnc3ccccc23)c1)c1ccccc1Cl 31.6 µM [inhibitor, single point]
CNC(=S)N/N=C/c1c(C)nn(-c2ccccc2)c1Cl 25.1 µM [inhibitor, partial curve]
Cn1nc(-c2ccc(Cl)cc2)c2cc(C(=O)NCCCN3CCOCC3)sc21 31.6 µM [inhibitor, partial curve]
Cc1cc(C)cc(C(=O)/C=C2\NC(=O)CS2)c1 20 µM [inhibitor, partial curve]
O=C(c1c(O)c2ccccc2oc1=O)C1CCC1 35.5 µM [inhibitor, single point]
Cc1ccc(C(=O)C(c2ccccc2)N2Cc3ccccc3C2=N)cc1 (stereo not drawn) 31.6 µM [inhibitor, partial curve]
CNC(=O)c1sc(-c2ccccc2)nc1C 17.8 µM [inhibitor, partial curve]
COc1cc(C(c2c(C)[nH][nH]c2=O)c2c(C)[nH][nH]c2=O)ccc1OC(C)C 39.8 µM [inhibitor, single point]
CCOc1ccc(-c2nnn(CC(=O)c3cc(OC)ccc3OC)n2)cc1 31.6 µM [inhibitor, partial curve]
CC(C)OC(=O)c1cc2c(ccn2C)n1CC(=O)N(Cc1ccccc1)c1ccc(F)cc1 31.6 µM [inhibitor, partial curve]
CCOC(=O)C1(C)C=C(Nc2ccc(OC)cc2)C(=O)N1c1ccc(OC)cc1 (stereo not drawn) 31.6 µM [inhibitor, partial curve]
Cc1cccc(CNc2cc(-c3ccc(C(=O)N(C)C)cc3)ncn2)c1 14.1 µM [inhibitor, partial curve]

Potency, active:
CC(C)C(NC(=O)CSCc1ccc([N+](=O)[O-])cc1)C(C)C 10 µM
O=C(CCCSc1nc(-c2ccco2)cc(C(F)(F)F)n1)NCC1CCCO1 (stereo not drawn) 7.94 µM
CCOc1ccc(-n2c(N)c(C(=O)NCc3ccco3)sc2=S)cc1 31.6 µM
O=C(c1cc(-c2ccc3c(c2)OCO3)on1)N1CCOCC1 31.6 µM
COc1ccccc1N(CC(=O)N/N=C/c1ccc(OCC(=O)NCc2ccco2)cc1)S(=O)(=O)c1ccc(C)cc1 15.8 µM
COCC(=O)Nc1ccc(C(C)C)cc1 17.8 µM
CCOC(=O)C1C(c2cc(OC)c(OC)c(OC)c2)NC(=S)NC1(O)C(F)(F)F (stereo not drawn) 31.6 µM
CCOC(=O)C(NC(=O)N(C)C)(Nc1sc(C)c(CC)c1C#N)C(F)(F)F (stereo not drawn) 14.1 µM
Cc1ccc(/C=C/C(=O)Nc2cccc3ncccc23)o1 31.6 µM

Activity change, negative = inhibition, inactive:
CC(=O)N1CCC(N(CCN2CCOCC2)C(=S)Nc2ccccc2C)CC1 -2.71%
O=S(=O)(NCCSc1ccc(Cl)cc1)c1ccc(F)cc1 -11%
Oc1ccc2ccccc2c1/C=C\c1ccc2c(Br)cc(Br)c(O)c2n1 -13.2%
CCOc1cc(C(=O)Nc2ccc3c(c2)OCO3)ccc1OCCOc1ccccc1Cl -11.2%
Cc1nc2ccccc2c2oc(C(=O)NCC3COc4ccccc4O3)cc12 (stereo not drawn) -13.8%
COc1cc(C)c(S(=O)(=O)N2CCOCC2)cc1C -8.76%
CCOC(=O)Cn1nc(C)c2c1CCCC2=O -21.6%
CN(C)C[C@@H](O)c1ccc(Cl)c2ccccc12 -8.68%
Cc1onc(-c2ccccc2)c1C(=O)NCC1COc2ccccc2O1 (stereo not drawn) -9.58%
Cc1ccc(S(=O)(=O)NCCCNS(C)(=O)=O)cc1 -5.89%
CCOC(=O)c1c(C)c(C(=O)NCc2ccc3c(c2)OCO3)c(C)n1CC -16.3%
COc1ccc(C2CC(c3c(-c4ccccc4)c4cc(Cl)ccc4[nH]c3=O)=NN2S(C)(=O)=O)cc1 (stereo not drawn) -7.21%
